Laboratory results published in PubChem BioAssay AID1963576 (National Center for Advancing Translational Sciences (NCATS), 2024).
Screen size: about 46,000 compounds; about 60 (0.1%) were called active. Not shown: some 3% with an inconclusive outcome. Calls follow the shape of the dose curve; as a rule, active = well fitted inhibition curve with a large enough effect; inconclusive = small, poorly fitted or top-dose-only effect; inactive = no such curve, though single readings can be large or run the other way. The list shows a part of the results.

Experiment: Primary qHTS assay for Inhibitors of ovarian cancer metastasis using an organotypic tumor microenvironment (TME) model. Also: nearly all actives have a fitted effect of over 65% in size.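 As to activity change, negative = inhibition: plate controls were DMSO wells for no effect and tomatine positive control wells for full effect.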
Conditions: SKOV3ip1-GFP adhesion/invasion on 3D omental model, fluorescence; series mostly up to 45.8 µM; activity change, negative = inhibition: at the top concentration
Method in brief: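 Primary human omental fibroblast/mesothelial 3D culture pre-formed 48 h. SKOV3ip1-GFP cells added with compounds (0.36-46 umol/L), incubated 2 h RT/16 h 37 C, fixed; GFP cells quantified at 488/509 nm.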

Activity change, negative = inhibition, inactive:
CCOC(=O)c1ccc(Nc2nc3ccccc3n3c(C)nnc23)cc1 -1.86%
CC1=Nc2cc(C(=O)NC3CCCC3)ccc2Sc2ccc(Cl)cc21 -9.66%
COC(=O)c1ccc(C(=O)OC)c(NC(=O)c2cnn3c(C(F)F)cc(-c4ccc(C)cc4)nc23)c1 4.9%
CCN1CCN(CCCNC(=O)c2cnn(-c3ccc(OC)cc3)c2C2CCN(C(=O)OC(C)(C)C)CC2)CC1 -5.31%
O=C(Cn1c(-c2cccs2)cc2cc(F)ccc21)N1CCCCC1 -9.7%
COC(=O)c1scc(-c2ccc(C)cc2)c1S(=O)(=O)N1CCN(c2ccccc2F)CC1 -2.61%
Cc1cccc(N2CCN(c3ncnc4c3cnn4-c3ccc(Cl)cc3)CC2C)c1 (stereo not given) -1.15%
CCOc1ccc(-c2noc(CSc3nnc(Cc4ccccc4)n3-c3ccc(F)cc3)n2)cc1 5.77%
CC(C)CN(CC(C)C)S(=O)(=O)c1ccc(C(=O)Nc2sc3c(c2C(N)=O)CCN(C(C)C)C3)cc1 47.4%
CCOCCc1nn2c(=O)cc(COC(=O)c3ccccc3NC(=O)CC(C)C)nc2s1 12.2%
Cc1cc(=O)n2[nH]c(NC(=O)c3cccc(Cl)c3)nc2n1 14.9%
COc1ccc(CNC(=O)Cn2ncc3c(=O)oc4ccc(C)cc4c32)c(OC)c1 12.2%
CC#C[C@]1(O)CC[C@H]2[C@@H]3CCC4=CC(=O)CCC4=C3[C@@H](c3ccc(N(C)C)cc3)C[C@@]21C 33.6%
CCCC(=O)Nc1nnc(SCc2cc(=O)n3cccc(C)c3n2)s1 9.81%
COc1ccc(-c2nc(CN3CCC(C(=O)NCc4ccc(F)cc4)CC3)c(C)o2)cc1OC -7.52%
COc1ccccc1CCNC(=O)CCCn1c(=O)c2cccn2c2cccnc21 -1.22%
Cc1c(C(=O)NCc2ccc(OC(C)C)cc2)sc2ncnc(N(C)C3CCCCC3)c12 -10.4%
Cc1ccc2[nH]c(CSc3nnc(NC(=O)COc4ccc(F)cc4)s3)cc(=O)c2c1 6.14%
Cc1ccccc1C(=O)n1nc(-c2ccco2)nc1NCc1cccs1 -4.54%
COc1ccc(CCC(=O)NC2CC(=O)N(c3ccccc3)C2)cc1 (stereo not given) 3.09%
O=C(NCC(c1ccc2c(c1)OCO2)N1CCN(c2ccccc2F)CC1)c1ccccc1F (stereo not given) -0.0113%
CCCN(CCC)CCNC(=O)c1nn(C)c2c1CS(=O)(=O)c1ccccc1-2 4.52%
COc1ccc(C2CC(=O)N(CC(=O)Nc3ccc(C(C)=O)cc3)c3ccccc3S2)cc1OC (stereo not given) 13.2%
CCOC(=O)c1c(C)oc2nc(C)nc(N3CCN(c4cccc(C(F)(F)F)c4)CC3)c12 2.11%
COc1ccc(CNC(=O)c2cc(-c3ccc(Cl)cc3)n[nH]2)cc1 7.07%
O=C(CCCCn1c(=O)c2ccccc2n(Cc2cccc(Cl)c2)c1=O)NCc1ccc2c(c1)OCO2 9.85%
O=S(=O)(NCCc1csc2nc(-c3ccc(Cl)cc3)nn12)c1ccc2c(c1)OCCO2 -2.4%
CCCn1c2ccccc2c2cnn(CC(=O)NCCCN(Cc3ccccc3)C(C)C)c(=O)c21 9.26%
CCCN(CCC)CCCNC(=O)c1cn(C)c2ccc(S(=O)(=O)N3CCOCC3)cc2c1=O -5.87%
CCC(C)NC(=O)CN1C(=O)c2cccnc2Oc2ccc(C)cc21 (stereo not given) 1.43%
CC(C)c1ccc(NC(=O)CN2C(=O)COc3ccc(S(=O)(=O)N4CCOCC4)cc32)cc1 8.03%
COC(=O)c1ccc2c(=O)n(CCCCCC(=O)NCc3ccc(OC)cc3)c(=O)[nH]c2c1 -9.65%
COc1ccc(Nc2cc(C(=O)NCCCN(C)C3CCCCC3)c3ccccc3n2)c(OC)c1 2.11%
COc1ccc2oc(=O)c(-c3nc(-c4ccc(C)c(C)c4)cs3)cc2c1 9%
CCC(Sc1nc2ncccc2o1)C(=O)Nc1cccc(C)c1 (stereo not given) 1.34%
Cc1ccc(C)c(NC(=O)c2ccc3c(c2)CCN3S(=O)(=O)c2ccccc2)c1 -14.9%
O=C(Nc1ccc(Cl)c(C(F)(F)F)c1)C(Cc1ccccc1)NS(=O)(=O)c1cccc2nsnc12 (stereo not given) 1.62%
Cc1cc(C)cc(OCCSc2nc(-c3cccs3)nc3cc(=O)[nH]n23)c1 -26%
COc1ccc(NC(=O)C2CCCN(S(=O)(=O)c3c(C)[nH]c(=O)[nH]c3=O)C2)cc1Cl (stereo not given) -1.85%
Cc1nn(-c2ccc(N3CCOCC3)nn2)c(C)c1CCC(=O)Nc1ccc(F)cc1F -9.69%
O=C(CSc1nccn1Cc1ccc(Cl)cc1)Nc1ccc2c(c1)OCO2 -1.22%
O=C(CN1N=C(c2ccccc2)CCC1=O)NCc1ccc(F)cc1Cl -22.7%
COc1cccc(-n2cc(C(=O)NCc3ccc(C)cc3)c3ccccc3c2=O)c1 0.615%
CCc1ccc(C2c3c(-c4ccccc4)n[nH]c3C(=O)N2c2ccc(C(=O)O)cc2)cc1 (stereo not given) 74.6%
CCc1cccc(CC)c1NC(=O)N1Cc2[nH]nc(NC(=O)c3ccc(N4CCN(C)CC4)cc3)c2C1 -40.2%
CCSc1nnc2c(n1)OC(c1ccc(C)s1)Nc1ccccc1-2 (stereo not given) 23.7%
CCOc1ccccc1NC(=O)CSc1ncc(S(=O)(=O)c2ccc(C)c(C)c2)c(N)n1 8.83%

outcome, inactive:
CCN1CCOC(=O)C1CC(=O)Nc1cc(Cl)ccc1C (stereo not given)
COc1cccc(C(=O)Nc2c3c(nn2-c2ccc(C)cc2C)CS(=O)(=O)C3)c1OC
COc1ccc(N(C)S(=O)(=O)c2ccc3c(c2)n(C)c(=O)c(=O)n3C)cc1
CC1=Nc2cc(C(=O)N3CCCCC3)ccc2Sc2ccc(C)cc21
CCOC(=O)c1c(NC(=O)/C=C/c2ccc(Cl)cc2)sc2c1CCC(C)C2 (stereo not given)
O=C(NCc1nc(-c2ccccc2)no1)c1ccco1
COc1cc(Cl)c(C)cc1NC(=O)c1nn(C)c2c1CSc1ccccc1-2
CCn1cc(C(=O)NCCc2ccccc2)c(=O)c2cc(S(=O)(=O)N3CCc4ccccc4C3)ccc21
COc1ccc(CCNc2nc(SCc3cccc(F)c3)nc3ccccc23)cc1OC
COc1ccc(-c2cc(C)no2)cc1S(=O)(=O)N1CCOc2ccc(Cl)cc21
CCc1cc2c(cc3c(=O)n(CC(=O)NCCc4ccccc4)ncn32)s1
COc1ccc(CCNC(=O)Cn2cc(S(=O)(=O)Cc3ccccc3Cl)c3ccccc32)cc1OC
O=C(CSc1nnc(-c2ccccc2F)o1)Nc1ccccc1Cl
